About 14,000 (4.5%) of roughly 310,000 compounds showed an effect of 50% or more. The effect is printed as a negative number. This is one part of the list.
These compounds were tested against human ether-à-go-go-related gene (hERG) potassium channel (human, UniProt Q12809) (assay: primary screen, population patch clamp on CHO cells stably expressing hERG).
Chain of human ether-à-go-go-related gene (hERG) potassium channel (Q12809 whole entry, looked up): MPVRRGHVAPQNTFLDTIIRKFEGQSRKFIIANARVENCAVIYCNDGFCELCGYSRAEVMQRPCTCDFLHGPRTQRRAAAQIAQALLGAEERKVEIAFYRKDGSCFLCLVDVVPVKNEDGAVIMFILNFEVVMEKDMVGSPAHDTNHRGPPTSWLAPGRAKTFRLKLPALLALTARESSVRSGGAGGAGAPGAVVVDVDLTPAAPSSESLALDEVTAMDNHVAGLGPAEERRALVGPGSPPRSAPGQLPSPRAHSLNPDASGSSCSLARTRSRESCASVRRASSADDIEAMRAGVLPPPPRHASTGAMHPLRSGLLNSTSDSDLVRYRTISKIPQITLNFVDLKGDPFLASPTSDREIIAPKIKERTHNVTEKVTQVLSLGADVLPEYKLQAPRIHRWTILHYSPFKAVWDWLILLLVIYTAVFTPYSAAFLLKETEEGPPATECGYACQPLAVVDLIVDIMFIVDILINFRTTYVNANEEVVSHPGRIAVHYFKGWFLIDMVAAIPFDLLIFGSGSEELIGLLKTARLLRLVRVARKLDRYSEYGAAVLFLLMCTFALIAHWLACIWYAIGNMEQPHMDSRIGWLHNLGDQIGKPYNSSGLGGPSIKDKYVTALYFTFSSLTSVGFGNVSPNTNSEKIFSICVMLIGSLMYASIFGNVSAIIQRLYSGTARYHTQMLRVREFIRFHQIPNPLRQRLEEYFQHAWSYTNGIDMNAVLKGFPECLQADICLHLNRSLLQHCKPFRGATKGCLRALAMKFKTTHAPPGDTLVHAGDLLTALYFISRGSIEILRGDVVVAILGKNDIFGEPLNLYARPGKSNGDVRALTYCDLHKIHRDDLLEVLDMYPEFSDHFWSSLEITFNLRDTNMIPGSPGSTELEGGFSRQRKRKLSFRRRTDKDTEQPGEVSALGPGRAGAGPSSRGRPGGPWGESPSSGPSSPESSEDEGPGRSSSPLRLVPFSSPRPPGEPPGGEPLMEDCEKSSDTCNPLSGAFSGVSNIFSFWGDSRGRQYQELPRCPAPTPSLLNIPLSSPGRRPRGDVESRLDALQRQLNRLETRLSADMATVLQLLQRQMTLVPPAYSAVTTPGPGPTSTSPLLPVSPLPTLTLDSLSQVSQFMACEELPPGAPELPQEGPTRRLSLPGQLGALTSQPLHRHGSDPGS
In the case of `CCOC(=O)C1CCN(S(=O)(=O)c2cc(C(=O)OC)n(C)c2)CC1`, the “hERG current change (%, negative = inhibition) at 10uM” value was -8.49%. With `Cc1[nH]c(=O)c(C(=O)/C=C/c2ccccc2F)c2c1CCCC2` the “hERG current change (%, negative = inhibition) at 10uM” value was 0.445%. `O=[N+]([O-])c1cc(C(F)(F)F)ccc1N1CCN(CCO)CC1` was tested, and the “hERG current change (%, negative = inhibition) at 10uM” value was -43%. In the case of `Cc1cc(C)nc(NC(=O)C2c3ccccc3Oc3ccccc32)n1`, the “hERG current change (%, negative = inhibition) at 10uM” value was 7.78%. With `COC(=O)C1=C(CCc2ccccc2)NC(=O)NC1c1ccc([N+](=O)[O-])cc1` (stereo not drawn) the “hERG current change (%, negative = inhibition) at 10uM” value was -23.2%. For `COCCNC(=O)CN(Cc1ccc2c(c1)OCO2)C(=O)CCC(=O)Nc1nccs1`, the “hERG current change (%, negative = inhibition) at 10uM” value was 13.6%. For `COc1cccc(OC)c1C(=O)NN1CCCCC1`, the “hERG current change (%, negative = inhibition) at 10uM” value was 3.23%. For `COC(=O)c1ccc(C2C(C(=O)c3ccco3)=C(O)C(=O)N2c2cc(C)on2)cc1` (stereo not drawn), the “hERG current change (%, negative = inhibition) at 10uM” value was 21.6%. With `COc1cc(/C=C2\SC(=O)NC2=O)ccc1Oc1ccc([N+](=O)[O-])cc1[N+](=O)[O-]` the “hERG current change (%, negative = inhibition) at 10uM” value was 20.2%. With `Cc1cccc(C(=O)NCCNc2nc3cc(C)c(C)cc3cc2C)c1` the “hERG current change (%, negative = inhibition) at 10uM” value was -2.14%. In the case of `COc1cccc(/C=C/C(=O)Nc2ccccc2N2CCOCC2)c1`, the “hERG current change (%, negative = inhibition) at 10uM” value was -15.4%. `CCCCC1CCC(C(=O)Nc2ccc(S(=O)(=O)Nc3nccs3)cc2)CC1` (stereo not drawn) was tested, and the “hERG current change (%, negative = inhibition) at 10uM” value was 4.61%. In the case of `CCOc1ccc(C(=O)NCCC(=O)N2CCC3(CC2)NCCc2[nH]cnc23)cc1`, the “hERG current change (%, negative = inhibition) at 10uM” value was -5.54%. With `COC(=O)c1ccc(CSc2nc3c(cnn3-c3ccc(F)cc3)c(=O)[nH]2)o1` the “hERG current change (%, negative = inhibition) at 10uM” value was 13.1%. `CCOc1ccc(NC(=O)CSc2nnc(-c3ccccc3)n2N)cc1` was tested, and the “hERG current change (%, negative = inhibition) at 10uM” value was 6.02%. With `O=C(C1CC1)N(CCN(C(=O)C1CC1)c1ccccc1)c1ccccc1` the “hERG current change (%, negative = inhibition) at 10uM” value was -1.01%. With `O=C(O)c1cc(N/N=C/c2ccc(OCc3ccccc3)cc2)ccc1Cl` the “hERG current change (%, negative = inhibition) at 10uM” value was -26.9%. In the case of `O=C(CNC(=O)c1ccc(Cl)cc1Cl)OCCOc1ccccc1`, the “hERG current change (%, negative = inhibition) at 10uM” value was 2.78%. In the case of `CCN1CCN(C(=O)CCNC(=O)Cn2ccc3ccccc3c2=O)CC1`, the “hERG current change (%, negative = inhibition) at 10uM” value was 13.9%. With `CC(C)COc1ccc(C(=O)NC(Cc2c[nH]c3ccccc23)C(=O)NN)cc1` (stereo not drawn) the “hERG current change (%, negative = inhibition) at 10uM” value was 15.1%. With `COc1ccc([N+](=O)[O-])cc1NC(=O)CCSCCc1ccccn1` the “hERG current change (%, negative = inhibition) at 10uM” value was -29.3%. In the case of `Nc1cc(=O)[nH]c(SCC(=O)Nc2ccc(Br)cc2)n1`, the “hERG current change (%, negative = inhibition) at 10uM” value was 20.6%. In the case of `CC1(C)CC2CC(C)(CN2C(=O)COc2cccc3ccccc23)C1` (stereo not drawn), the “hERG current change (%, negative = inhibition) at 10uM” value was -3.79%. In the case of `C=CCOc1ccc(/C=N/NC(=O)C(=O)Nc2ccccn2)cc1OC`, the “hERG current change (%, negative = inhibition) at 10uM” value was -20.9%.

Reference: paper PMC4336329 (PLoS ONE, 2015)
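Also: peak tail current of the secondary pulse compared with the same well before compound.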
